Several values for one entry are separate records, joined by “and”; a condition that tells them apart may be missing. Identical values can stand only once. In all, about 270,000 compounds went through this assay and about 5,800 (2.1%) were called active. The inconclusive results got no clear call from the source; some entries with a clear call stand among them for comparison. The call rests on the fitted dose curve; in most records, active means well fitted inhibition curve with a large enough effect; inconclusive means small, poorly fitted or top-dose-only effect; inactive means flat fitted curve, though single readings scatter. A potency beside an inconclusive call is a rough fit, not a confirmed value.
Biological target: Microtubule-associated protein tau (Homo sapiens) (UniProt P10636)
Chain of UniProt P10636 (P10636 whole entry, looked up): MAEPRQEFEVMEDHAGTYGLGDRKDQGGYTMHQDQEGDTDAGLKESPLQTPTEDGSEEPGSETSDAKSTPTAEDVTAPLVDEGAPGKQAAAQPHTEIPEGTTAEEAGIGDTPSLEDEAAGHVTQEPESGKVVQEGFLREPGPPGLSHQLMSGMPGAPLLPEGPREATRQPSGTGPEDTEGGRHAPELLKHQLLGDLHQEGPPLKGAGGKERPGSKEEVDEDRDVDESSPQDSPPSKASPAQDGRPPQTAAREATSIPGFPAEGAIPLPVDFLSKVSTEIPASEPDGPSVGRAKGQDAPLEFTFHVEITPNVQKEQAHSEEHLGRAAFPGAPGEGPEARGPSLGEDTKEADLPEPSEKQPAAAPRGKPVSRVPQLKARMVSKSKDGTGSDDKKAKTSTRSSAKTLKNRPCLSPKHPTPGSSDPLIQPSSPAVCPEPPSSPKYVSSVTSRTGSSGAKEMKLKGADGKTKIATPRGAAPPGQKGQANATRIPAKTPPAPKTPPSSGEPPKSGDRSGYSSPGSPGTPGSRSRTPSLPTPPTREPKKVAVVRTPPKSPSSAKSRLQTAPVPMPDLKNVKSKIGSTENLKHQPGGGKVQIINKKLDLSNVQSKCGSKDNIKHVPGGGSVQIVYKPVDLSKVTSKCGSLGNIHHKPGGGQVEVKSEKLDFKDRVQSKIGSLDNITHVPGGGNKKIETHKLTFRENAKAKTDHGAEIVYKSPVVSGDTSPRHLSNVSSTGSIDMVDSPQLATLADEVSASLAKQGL
Experiment: qHTS for Inhibitors of Tau Fibril Formation, Thioflavin T Binding; further: nearly all actives have a fitted effect of over 55% in size
Conditions: recombinant tau K18 P301L (four-repeat tau fragment), heparin-induced fibrillization, ThT fluorescence; series mostly up to 57.4 µM; activity, negative = inhibition: at the top concentration
Procedure, shortened: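 Heparin-induced fibrillization of the P301L-mutant K18 repeat-domain fragment of human tau was followed by ThT binding in quantitative high-throughput format.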
On the % scale 0 is the no-effect control and ±100 the full control effect; potency means the concentration at half of the fitted maximal effect; tags describe the fitted curve by direction and shape.

Row | SMILES | Potency | activity, negative = inhibition
1 | Nc1ccc2cn[nH]c2c1 | inconclusive: 3.98 µM [inhibitor, partial curve] | –
2 | COc1ccc(/C=N/NC(=O)CSCC(=O)Nc2ccccc2)cc1 | – | inactive: -11.2%
3 | NC(=O)c1ccccc1NC(=S)NC(=O)CCc1ccccc1 | inconclusive: 39.8 µM [inhibitor, single point] | –
4 | COc1cccc(/C=C/C(=O)Nc2ccc(N3CCOCC3)cc2)c1OC | active: 5.62 µM | –
5 | CCCNC(=O)Nc1cc(C(=O)NCc2cccc(OCC)c2)ccc1N1CCCC1 | – | inactive: -11.6%
6 | Cc1cc(C)c2c(=O)cc(CSCC(=O)Nc3nnc(C)s3)[nH]c2c1 | – | inactive: -2.51%
7 | O=C(OCCN1CCN(c2ncc(C(F)(F)F)cc2Cl)CC1)c1ccc(F)cc1 | – | inactive: -22.7%
8 | Cc1cc(OCC(=O)Nc2sc3c(c2C(N)=O)CCCC3)ccc1C(C)C | inconclusive: 14.1 µM [inhibitor, partial curve] | –
9 | COc1ccc(N=CC2=C(O)CC(c3ccccc3)CC2=O)c(OC)c1 (stereo not given) | inconclusive: 28.2 µM [inhibitor, partial curve] | –
10 | COCCn1cnc2c(c1=O)c1nc3ccccc3nc1n2/N=C/c1ccc(OC)c(OC)c1 | inconclusive: 12.6 µM [inhibitor, partial curve] | –
11 | Cc1cc(C)c2cc3c(N)c(C(=O)N4CCOCC4)sc3nc2c1 | active: 22.4 µM | –
12 | COc1cc(SC#N)ccc1N=Cc1c(C)[nH]n(-c2ccc(Cl)cc2)c1=O | active: 11.2 µM | –
13 | CCc1ccc(C(=O)c2cn(CC(=O)Nc3ccc(F)cc3)c3cc4c(cc3c2=O)OCO4)cc1 | inconclusive: 8.91 µM [inhibitor, partial curve] | –
14 | Cc1ncoc1C(=O)Nc1ncc([N+](=O)[O-])s1 | active: 25.1 µM | –
15 | CC(C)C[C@H](NC(=O)c1[nH]cnc1C(=O)N[C@@H](C)c1ccccc1)C(=O)OC(C)(C)C | inconclusive: 28.2 µM [inhibitor, single point] | –
16 | COCCNC(=S)N/N=C/c1ccc(-c2ccc([N+](=O)[O-])cc2)o1 | inconclusive: 0.891 µM [inhibitor, full curve] | –
17 | COc1ccc([N+](=O)[O-])cc1NCc1ccccc1 | inconclusive: 28.2 µM [inhibitor, partial curve] | –
18 | CCN1CCN(c2nc(-c3ccncc3)nc3ccccc23)CC1 | inconclusive: 17.8 µM [inhibitor, partial curve] | –
19 | COc1ccc(NC(=O)CCc2c(C)nn(-c3ccc(N4CCOCC4)nn3)c2C)cc1Cl | inconclusive: 14.1 µM [inhibitor, single point] | –
20 | Cc1cccc(C(=O)Nc2ccc(N3CCN(c4ccc(C(F)(F)F)cn4)CC3)nc2)c1 | inconclusive: 0.631 µM [inhibitor, full curve] | –
21 | Nc1nc(=S)c2ncn(C3OC(CO)C(O)C3O)c2[nH]1 (stereo not given) | active: 11.2 µM | –
22 | Cc1ccc(NNC(=S)Nc2ccc(C(C)C)cc2)c(C)c1 | active: 14.1 µM | –
23 | C/C(=N/NC(=O)c1ccoc1C)c1cccc(NC(=O)C2CC2)c1 | inconclusive: 28.2 µM [inhibitor, single point] | –
24 | Cc1cc(NC(=O)CSc2nc(-c3cccnc3)ccc2C#N)no1 | inconclusive: 15.8 µM [inhibitor, partial curve] | –

Row | SMILES | Potency | activity, negative = inhibition
25 | CC(Oc1ccccc1)C(=O)Nc1ccc(OCc2cc(=O)n3ccsc3n2)cc1 (stereo not given) | – | inactive: -1.78%
26 | COC(=O)C1=C(C)N(Cc2cccnc2)C(=O)/C1=C\c1cccs1 | inconclusive: 31.6 µM [inhibitor, partial curve] | –
27 | Cc1ccccc1CNC(=O)c1cccc(NC(=O)N2CCSc3ncccc32)c1 | – | inactive: 4.52%
28 | Cc1sc2nc(CSc3ccccc3)nc(N3CCN(C)CC3)c2c1C | – | inactive: -10.4%
29 | COc1cc(C(Nc2ccccn2)c2ccc3ccc(C)nc3c2O)cc(OC)c1O (stereo not given) | active: 15.8 µM | –
30 | O=c1cnnc(N/N=C/c2c[nH]c3ccccc23)[nH]1 | inconclusive: 10 µM [inhibitor, partial curve] | –
31 | COc1ccccc1CNC(=O)CSc1nc2nc(C)c(Cc3ccccc3Cl)c(C)n2n1 | inconclusive: 22.4 µM [inhibitor, single point] | –
32 | COc1cccc(/C=N/n2cnc3ccccc32)c1OC | inconclusive: 12.6 µM [inhibitor, partial curve] | –
33 | NNc1ncnc2scc(-c3ccc(Cl)cc3)c12 | inconclusive: 20 µM [inhibitor, single point] | –
34 | COC(=O)c1ccccc1NC(=O)C1CCCN(c2nnc(-n3cccc3)s2)C1 (stereo not given) | inconclusive: 10 µM [inhibitor, partial curve] | –
35 | S=C(NCCC(c1ccccc1)c1ccccc1)Nc1ccccc1Cl | – | inactive: 13.9%
36 | CN(c1nc2c(c(=O)n(C)c(=O)n2C)n1CC(=O)c1ccccc1)C1CCCCC1 | inconclusive: 0.112 µM [inhibitor, full curve, poor fit] | –
37 | CCOc1ccc(CCNC(=O)CCC(=O)Nc2ccc3nc(N4CCN(C)CC4)cc(C)c3c2)cc1OCC | inconclusive: 25.1 µM [inhibitor, partial curve, poor fit] | –
38 | Cc1cc(Cl)c2cc3ccccc3cc2n1 | inconclusive: 28.2 µM [inhibitor, single point] | –
39 | Cc1ccc(S(=O)(=O)c2cn(CC(=O)Nc3ccccc3C)c3cc4c(cc3c2=O)OCO4)cc1 | inconclusive: 17.8 µM [inhibitor, single point] | –
40 | Cn1cccc1CC(=O)N/N=C/c1cc([N+](=O)[O-])ccc1Cl | inconclusive: 25.1 µM [inhibitor, single point] | –
41 | Cc1ccc(C(=O)COC(=O)c2ccc(Br)o2)cc1C | inconclusive: 11.2 µM [inhibitor, partial curve, poor fit] | –
42 | CN(C)/C=C1\C=C2C(=O)c3ccccc3N2C1=O | inconclusive: 1.26 µM [activator, full curve] | –
43 | N#CC1=C(SCC(=O)c2cc3ccccc3oc2=O)NC(=O)C(C#N)C12CCCC2 (stereo not given) | inconclusive: 35.5 µM [inhibitor, single point] | –
44 | COc1ccc(N2CCN(C(=O)c3ccc(C)c(Cl)c3)CC2)cc1 | inconclusive: 17.8 µM [inhibitor, partial curve] | –
45 | COC(=O)c1ccccc1NC(=S)NC(=O)c1ccc(C)cc1 | inconclusive: 5.01 µM [inhibitor, partial curve] | –
46 | CC(C)C1COC(c2cccc3ccccc23)=N1 (stereo not given) | inconclusive: 20 µM [inhibitor, partial curve, poor fit] | –
47 | Cc1ccc2scc(N3CCC(C)CC3)c(=O)c2c1 | inconclusive: 12.6 µM [inhibitor, partial curve] | –
48 | CCNC(=S)NS(=O)(=O)c1ccc(Cl)cc1 | – | inactive: -3.09%

Row | SMILES | Potency | activity, negative = inhibition
49 | O=C(Oc1ccccc1N1C(=O)CCC1=O)c1ccco1 | inconclusive: 15.8 µM [inhibitor, partial curve] | –
50 | CCN1CCc2nc(NC(=O)c3ccccc3)sc2C1 | – | inactive: -9.36%
51 | CC(C)CN1CCC(=O)N([C@H](CSc2ccc(Br)cc2)c2ccccc2)CC1 | inconclusive: 14.1 µM [inhibitor, partial curve, poor fit] | –
52 | CCOC(=O)C1CCN(C(=O)Nc2c(-c3ccccc3)noc2C)CC1 | – | inactive: -0.88%
53 | c1cnc(N2CCN(c3ncnc4c3oc3ccccc34)CC2)nc1 | inconclusive: 10 µM [inhibitor, partial curve] | –
54 | NNC(=O)C1CC1c1ccccc1 (stereo not given) | – | inactive: 1.45%
55 | O=C(NC(=S)Nc1cccc(NC(=O)c2ccc(Cl)cc2Cl)c1)c1cccs1 | – | inactive: 3.13%
56 | CN1CCc2c(sc(NC(=O)c3cc4cc([N+](=O)[O-])ccc4s3)c2C(N)=O)C1 | active: 2.24 µM | –
57 | CCOC(=O)N1CCN(Cc2nc3cc([N+](=O)[O-])ccc3n2C(C)C)CC1 | – | inactive: 1.25%
58 | C[C@H](O/N=C1/[C@H]2O[C@@H]2[C@@H](O)[C@H]2[C@H]1CCn1c(=O)n(-c3ccccc3)c(=O)n12)c1cn([C@H](CO)Cc2ccccc2)nn1 | – | inactive: -2.78% [at 11.5 µM] and inactive: -6.08% [at 11.5 µM]
59 | CC(C)c1nc2ccc(C(=O)NCCCN3CCN(c4cccc(Cl)c4)CC3)cc2o1 | inconclusive: 17.8 µM [inhibitor, single point] | –
60 | CCOC(=O)c1nn(-c2ccccc2C)c(=O)c2c(N)scc12 | active: 15.8 µM | –
61 | Cc1[nH]c2ccccc2c1C(c1ccccc1)c1ccc(Cl)s1 (stereo not given) | inconclusive: 12.6 µM [inhibitor, partial curve, poor fit] | –
62 | CCN(CC)CCNC(=O)CSc1nc2nc(C)c(Cc3ccccc3)c(C)n2n1 | – | inactive: 4.08%
63 | O=c1cc2c(=O)oc3cc(O)c(O)oc3c2c(O)c1O | active: 4.47 µM | –
64 | Cc1cccn2c(Nc3ccccc3)c(-c3cccs3)nc12 | inconclusive: 31.6 µM [inhibitor, single point] | –
65 | COc1ccc(/C=C/C(=O)OCC(=O)Nc2ccc(N3CCOCC3)cc2)cc1 | inconclusive: 3.16 µM [inhibitor, full curve] | –
66 | Cc1ccc(-n2nc(C)c3c2OC(N)=C(C#N)C3c2ccoc2)cc1 (stereo not given) | active: 12.6 µM | –
67 | Cn1c(=O)c2[nH]c(=O)cnc2n(C)c1=S | inconclusive: 31.6 µM [inhibitor, single point] | –
68 | Clc1ccc(Oc2nc(Oc3ccc(Cl)cc3)nc(N3CCOCC3)n2)cc1 | – | inactive: 0.65%
69 | Cc1cc(C)n(CC(=O)NC2C(=O)N3C(C(=O)O)=C(CSc4nnc(C)s4)CSC23)n1 (stereo not given) | inconclusive: 20 µM [inhibitor, single point] | –
70 | Cc1ccc(C(=O)NCC(=O)OCC(=O)Nc2cc(C)c(C)cc2[N+](=O)[O-])cc1 | inconclusive: 25.1 µM [inhibitor, single point] | –

Reference: PubChem BioAssay AID1460 (National Center for Advancing Translational Sciences (NCATS), 2008)
